In PubChem BioAssay (NCATS):
The shares of active, inactive and inconclusive entries below differ from those in the screen. For part of these data: Where the call is inconclusive, the potency comes from a doubtful curve fit. Activity calls are given as the source filed them. Calls follow the shape of the dose curve; as a rule, active = well fitted curve in the direction sought with a large enough effect; inconclusive = small, poorly fitted or top-dose-only effect, or another doubt; inactive = no such curve, though single readings can be large; an effect the other way counts as inactive or inconclusive.

What was measured:
[1] = test system: Zika virus NS2B-NS3 protease (linked construct); test: Primary screen NINDS Rhodamine qHTS for Zika virus inhibitors (AID 1347160); also: potency is read from the fitted curve at half-maximal effect; nearly all actives have a fitted effect of over 55% in size
Method in brief: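 Kinetic fluorescence (Ex 480 nm, Em 540 nm) over 15 min with 1.5 microM Rhodamine110 peptide and 25 nM linked protease.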

[2] = OV-KATE Cancer Cell Toxicity qHTS against the NCATS CANVASS Library (AID 1347345); also: potency is read from the fitted curve at half-maximal effect
Method in brief: (§1)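 Cells were seeded at 1000 per well, allowed 4 h at 37 degrees C/5% CO2, then pin-treated with an 11-point compound series. After 72 h, viability was read as CellTiter-Glo luminescence following 15min at room temperature.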

[3] = HPAF-II Cancer Cell Toxicity qHTS against the NCATS CANVASS Library (AID 1347346); also: potency is read from the fitted curve at half-maximal effect; nearly all actives have a fitted effect of over 55% in size
Method in brief: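 Cytotoxicity in HPAF-II pancreatic cancer cells: 72 h treatment across 11 concentrations, ATP-based CellTiter-Glo luminescence endpoint.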

[4] = UWB1.289 Cancer Cell Toxicity qHTS against the NCATS CANVASS Library (AID 1347347); also: potency is read from the fitted curve at half-maximal effect; nearly all actives have a fitted effect of over 60% in size
Method in brief: as §1

[5] = OV-SAHO Cancer Cell Toxicity qHTS against the NCATS CANVASS Library (AID 1347348); details: OV-SAHO viability, CellTiter-Glo luminescence, 72 h; series mostly up to 38.3 µM; also: nearly all actives have a fitted effect of over 55% in size; also: potency is read from the fitted curve at half-maximal effect
Method in brief: as §1

[6] = qHTS for Hypoxia signaling pathway (HIF-1) antagonists against the NCATS CANVASS Library (AID 1347374); also: potency is read from the fitted curve at half-maximal effect; nearly all actives have a fitted effect of over 60% in size
Method in brief: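 HRE-bla ME-180 cells (2,000/well, 0.5% dialyzed FBS) were pre-incubated 5 h, then given an 11-point compound series plus CoCl2 (60 uM solution as added) for 17 h at 37C. CCF4 β-lactamase read (ex 405, em 460/530 nm) after 2 h at RT.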

[7] = qHTS for Antimalaria activity screened against the NCATS CANVASS Library (AID 1347380); also: potency is read from the fitted curve at half-maximal effect; nearly all actives have a fitted effect of over 40% in size
Method in brief: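 Growth inhibition of asexual erythrocytic P. falciparum Dd2 was quantified by SYBR Green DNA staining. Cultures grew 72 h with compound (11-point series) in hypoxic gas at 37C; lysis and staining lasted 18 h.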

[8] = qHTS for Activators of p53 Stress Response Pathway screened against the NCATS CANVASS Library (AID 1347388); also: potency is read from the fitted curve at half-maximal effect
Method in brief: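 p53RE-bla HCT-116 cells (4000/well) were plated 5 h at 37C, exposed to compounds for 16 h at 37C over an 11-point concentration series, then loaded with CCF4 for 2 h at room temperature; 460/530 nm emission ratio read.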

[9] = Secretion counterscreen for inhibitors of the SERCaMP assay screened against the NCATS CANVASS Library (AID 1347390); details: SH-SY5Y constitutive GLuc secretion, luminescence, 20 h; activity change, negative = inhibition: at 76.6 µM (top of the series);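 also: light from luciferase secreted into medium read as a measure of general secretion; potency is read from the fitted curve at half-maximal effect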
Method in brief: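 Natural products are titrated in an 11-point series up to 77 uM onto SH-SY5Y-GLuc STOP cells for 20 h. Secreted reporter activity is measured as coelenterazine-driven luminescence, with Brefeldin A on each plate.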

[10] = qHTS for inhibitors of ER calcium dysfunction: SERCaMP assay screened against the NCATS CANVASS Library (AID 1347393); details: SH-SY5Y GLuc-SERCaMP (Gaussia luciferase released on ER calcium loss) secretion, thapsigargin, luminescence; activity change, negative = inhibition: at 76.6 µM (top of the series) unless noted; also: potency is read from the fitted curve at half-maximal effect; nearly all actives have a fitted effect of over 40% in size
Method in brief: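 qHTS in SH-SY5Y reporter cells: 16 h compound pretreatment, 4 h thapsigargin, then secreted Gaussia luciferase measured by luminescence.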

[11] = qHTS for inhibitors of Wild type Zika virus screened against the NCATS CANVASS Library (AID 1347396); also: potency is read from the fitted curve at half-maximal effect
Method in brief: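 Protection against wild-type Zika cytopathic effect is measured in African green monkey Vero 766 cells exposed to an 11-point compound series. Surviving cells are quantified by CellTiter Glo luminescence after 72 h.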

[12] = Panc-1005 Cancer Cell Toxicity qHTS against the NCATS CANVASS Library (AID 1347349); also: nearly all actives have a fitted effect of over 60% in size; also: potency is read from the fitted curve at half-maximal effect
Method in brief: as §1

[13] = SW1088 Cancer Cell Toxicity qHTS against the NCATS CANVASS Library (AID 1347350); also: nearly all actives have a fitted effect of over 75% in size; also: potency is read from the fitted curve at half-maximal effect
Method in brief: as §1

[14] = UWB1.289-WTBRCA1 Cancer Cell Toxicity qHTS against the NCATS CANVASS Library (AID 1347354); also: potency is read from the fitted curve at half-maximal effect
Method in brief: (§2)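 qHTS cytotoxicity: compounds tested in 11 concentrations on 1000 seeded cells per well over 72 h; bortezomib served as control; signal from CellTiter-Glo luminescence.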

[15] = HEK-293 Cancer Cell Toxicity qHTS against the NCATS CANVASS Library (AID 1347355); also: potency is read from the fitted curve at half-maximal effect; nearly all actives have a fitted effect of over 65% in size
Method in brief: as §2

[16] = KB-8-5-11 Cancer Cell Toxicity qHTS against the NCATS CANVASS Library (AID 1347364); details: activity change, negative = toxicity: at 46.1 µM (top of the series); also: potency is read from the fitted curve at half-maximal effect; nearly all actives have a fitted effect of over 75% in size
Method in brief: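 Natural products were titrated in 11 points onto KB-8-5-11 cells, 500 per well, and cytotoxicity was scored from CellTiter-Glo luminescence after 72 hr culture.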

[17] = A2780 Cisplatin Sensitive Ovarian Cancer Cell Toxicity qHTS against the NCATS CANVASS Library (AID 1347353); also: potency is read from the fitted curve at half-maximal effect; nearly all actives have a fitted effect of over 60% in size
Method in brief: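 Seventy-two-hour exposure of cisplatin-sensitive A2780 ovarian cells to an 11-concentration qHTS series; cytotoxicity is inferred from loss of ATPLite luminescence. Bortezomib titration served as positive control.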

[18] = qHTS for activators of Nrf2/ARE signaling pathway screened against the NCATS CANVASS Library (AID 1347391)
Method in brief: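 Cells carrying an ARE-driven beta-lactamase reporter (HepG2 background) are dosed for 16 h, then stained with CCF4. Cell viability in the same wells is measured by CellTiter-Glo luminescence.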

[19] = U-118MG Cancer Cell Toxicity qHTS against the NCATS CANVASS Library (AID 1347351)
Method in brief: as §1

[20] = Viability qHTS for inhibitors of the SERCaMP assay screened against the NCATS CANVASS Library (AID 1347400); also: potency is read from the fitted curve at half-maximal effect; nearly all actives have a fitted effect of over 70% in size
Method in brief: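 Cytotoxicity counter-screen: ATP content (CellTiter-Glo luminescence) of SH-SY5Y-GLuc SERCaMP MJH297 cells after 48 h at 37C with compounds in an 11-point qHTS series.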

Measured: Potency
Tags tell the direction and shape of the fitted curve.

C/C=C1/CN2C3CC1C1C=CC(=O)N4c5ccccc5[C@@]3(C[C@@H]2C2=C[C@H]3C5CC6N(CC[C@@]67c6ccccc6N(C2=O)[C@@H]37)C/C5=C/C)[C@H]14 (some centres not stated)
active: [1] 15.6 µM | [3] 5.95 µM | [4] 9.41 µM | [6] 9.41 µM | [7] 1.06 µM | [9] 34.3 µM | [10] 0.216 µM
inconclusive: [2] 21.1 µM [cytotoxic, partial curve] | [5] 13.3 µM [cytotoxic, partial curve] | [8] 11.7 µM [activator, single point] | [11] 36.9 µM [inhibitor, single point]

CC(C)=CCC/C(C)=C/Cc1c(O)c(CC=C(C)C)c(O)c2c(=O)c3cc(O)ccc3oc12
active: [1] 9.84 µM | [2] 2.36 µM | [3] 13.3 µM | [4] 8.38 µM | [5] 10.6 µM | [12] 14.9 µM | [13] 9.43 µM | [14] 14.9 µM
inconclusive: [15] 29.6 µM [cytotoxic, single point] | [16] 26.4 µM [cytotoxic, single point] | [6] 13.3 µM [inhibitor, partial curve, poor fit] | [7] 2.65 µM [cytotoxic, partial curve, poor fit] | [8] 29.5 µM [activator, single point] | [10] 30.5 µM [inhibitor, partial curve] | [11] 36.9 µM [inhibitor, single point]

C=C1C[C@H]2O[C@@H]3[C@@H]4[C@H](CC[C@@](C)(O)[C@@H]42)[C@H](C)COC3(C)[C@@H](OC(=O)CCCCCCC)C[C@H]1O (some centres not stated)
inactive: [11]
active: [7] 0.0059 µM | [18] 20.9 µM
inconclusive: [1] 55.3 µM [inhibitor, partial curve] | [2] 29.8 µM [cytotoxic, single point] | [3] 29.8 µM [cytotoxic, single point] | [4] 29.8 µM [cytotoxic, single point] | [5] 29.8 µM [cytotoxic, single point] | [12] 29.8 µM [cytotoxic, single point] | [13] 29.8 µM [cytotoxic, single point] | [17] 37.2 µM [cytotoxic, single point] | [16] 26.4 µM [cytotoxic, single point] | [6] 21.1 µM [inhibitor, single point] | [10] 8.6 µM [inhibitor, partial curve]

CCC(=O)CCCCC[C@@H]1NC(=O)[C@H]2CCCCN2C(=O)[C@H](C(C)C)NC(=O)[C@H](Cc2cn(OC)c3ccccc23)NC1=O
inconclusive: [2] 8.38 µM [cytotoxic, partial curve] | [14] 11.8 µM [cytotoxic, partial curve] | [16] 29.6 µM [cytotoxic, single point] | [8] 0.588 µM [activator, partial curve] | [11] 4.65 µM [inhibitor, full curve]
active: [1] 13.9 µM | [12] 4.21 µM | [17] 5.26 µM

CO[C@@H](C[C@@H](C)[C@@H](O)/C=C/C=C/CNC(=O)C(C)(C)[C@H](O)\C(C)=C/C=C\C=C\Cc1cnco1)[C@]1(O)[C@@H](C)C(=O)N(C)[C@@]12COC2=O
inactive: [2] | [5] | [12] | [13] | [19] | [8] | [11]
inconclusive: [1] 6.97 µM [inhibitor, partial curve, poor fit] | [7] 0.0053 µM [cytotoxic, full curve, poor fit]

C[C@H]1CCC2(OC1)O[C@H]1C[C@H]3[C@@H]4CC(=O)[C@]5(O)C[C@H](O)CC[C@@]5(C)[C@H]4CC[C@@]3(C)[C@H]1[C@H]2C (some centres not stated)
inconclusive: [1] 62.1 µM [inhibitor, partial curve, poor fit] | [3] 29.8 µM [cytotoxic, partial curve, poor fit] | [4] 26.5 µM [cytotoxic, single point] | [12] 21.1 µM [cytotoxic, single point] | [13] 23.7 µM [cytotoxic, single point] | [17] 33.2 µM [cytotoxic, single point] | [14] 26.5 µM [cytotoxic, partial curve, poor fit] | [15] 37.2 µM [cytotoxic, single point] | [16] 33.2 µM [cytotoxic, single point] | [6] 29.8 µM [inhibitor, single point] | [7] 0.0037 µM [cytotoxic, full curve, poor fit] | [10] 60.9 µM [inhibitor, single point] | [11] 16.5 µM [inhibitor, partial curve] | [20] 67.8 µM [cytotoxic, single point]
active: [8] 23.4 µM
